Read counts are not given, so values of variants with three or more changes are uncertain.
B1: CPEB3 Ribozyme (parent)
chain: UAACAGGGGGCCACAGCAGAAGCGUUCACGUCGCAGCCCCUGUCAGAUUCUGGUGAAUCUGCGAAUUCUGCUGUAUAUCUC

Variants of: B1
Experiment: self-cleavage, relative activity (ratio to wild type); higher = more cleavage; in vitro, sequencing
Outline: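 Relative activity was defined as the cleaved/total read fraction for a variant divided by the same fraction for the unmutated ribozyme. CPEB3 self-cleaving ribozyme libraries were made by rounds of error-prone PCR, barcoded, and transcribed in vitro with T7 RNA polymerase for 5 hours at 37°C, and cleavage ran through transcription plus a 15 min DNase I step before EDTA. Illumina sequencing of template-switched reverse transcripts gave the reads, and DNA sequencing mapped the barcodes. Averages come from three batches, using variants with at least 5 reads.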
For UAACAGGGGGCCACAGCAGAAGCGUUCACGUCGCAGCCCCAGUCAGAUUCCGGUGAGUCUGCGAACUCUGCUGUAUAUCUC [U41A U51C A57G U66C], the self-cleavage was 0.07.
UAACAGGGGGCCACAGCAGAAGCGUUCACGUCGCAGCCCCAGUCAGAUUCCGGUGAGUCUGCGAAUUCUGCCGUAUAUCUC [U41A U51C A57G U72C] showed a self-cleavage of 0.38.
UAACAGGGGGCCACAGCAGAAGCGUUCACGUCGCAGCCCCAGUCAGAUUCCGGCGAAUCUGCGAAUUCUGCUGCAUAUCUC [U41A U51C U54C U74C] gave a self-cleavage of 0.36.
With UAACAGGGGGCCACAGCAGAAGCGUUCACGUCGCAGCCCCAGUCAGAUUCCGGUGAAACUGCGAAUUCUGCUGUAUAUCUC [U41A U51C U58A] the self-cleavage was 0.09.
UAACAGGGGGCCACAGCAGAAGCGUUCACGUCGCAGCCCCAGUCAGAUUCCGGUGAAUCCGCGAAUUCUGCCGUAUACCCC [U41A U51C U60C U72C U78C U80C] gave a self-cleavage of 0.04.
UAACAGGGGGCCACAGCAGAAGCGUUCACGUCGCAGCCCCAGUCAGAUUCCGGUGAAUCUGCGAAUUCUGCUGUAAAUCUC [U41A U51C U76A] gave a self-cleavage of 0.14.
Work on UAACAGGGGGCCACAGCAGAAGCGUUCACGUCGCAGCCCCAGUCAGAUUCGGGUGAAUCUGCGAAUACUGCUGUAUAUCUC [U41A U51G U67A] yielded a self-cleavage of 0.11.
UAACAGGGGGCCACAGCAGAAGCGUUCACGUCGCAGCCCCAGUCAGAUUCUGGCGAAUCCGCGAAUUCUGCUGUAUAUCCC [U41A U54C U60C U80C] gave a self-cleavage of 0.13.
Variant UAACAGGGGGCCACAGCAGAAGCGUUCACGUCGCAGCCCCAGUCAGAUUCUGGCGAAUCUGCGAAUUCUGCUGUACAUCUC [U41A U54C U76C] has a self-cleavage of 0.12.
Variant UAACAGGGGGCCACAGCAGAAGCGUUCACGUCGCAGCCCCAGUCAGAUUCUGGGGAACCUGCGGAUUCUGCUGUAUACCAC [U41A U54G U58C A64G U78C U80A] has a self-cleavage of 0.64.
With UAACAGGGGGCCACAGCAGAAGCGUUCACGUCGCAGCCCCAGUCAGAUUCUGGUGAAACUGCGAAUUCCGCUGUAUAUCUC [U41A U58A U69C] the self-cleavage was 0.12.
UAACAGGGGGCCACAGCAGAAGCGUUCACGUCGCAGCCCCAGUCAGAUUCUGGUGAACCUGCGAAUUCUGCUGUAUGUCUC [U41A U58C A77G] gave a self-cleavage of 0.26.
With UAACAGGGGGCCACAGCAGAAGCGUUCACGUCGCAGCCCCAGUCAGAUUCUGGUGAACCUGCGAAUUCAGCUGUAUAUCUC [U41A U58C U69A] the self-cleavage was 0.09.
With UAACAGGGGGCCACAGCAGAAGCGUUCACGUCGCAGCCCCAGUCAGAUUCUGGUGAACCUGCGAAUUCUGCCGUAUAUCUC [U41A U58C U72C] the self-cleavage was 0.21.
With UAACAGGGGGCCACAGCAGAAGCGUUCACGUCGCAGCCCCAGUCAGAUUCUGGUGAACCUGCGAAUUCUGCUGCAUAUCUC [U41A U58C U74C] the self-cleavage was 0.36.
UAACAGGGGGCCACAGCAGAAGCGUUCACGUCGCAGCCCCAGUCAGAUUCUGGUGAAUCAGCGGAUUCUGCUGGAUAUCUC [U41A U60A A64G U74G] showed a self-cleavage of 0.1.
Variant UAACAGGGGGCCACAGCAGAAGCGUUCACGUCGCAGCCCCAGUCAGAUUCUGGUGAAUCAGCGAAUUCUGCCGUAUAUCUC [U41A U60A U72C] has a self-cleavage of 0.07.
Work on UAACAGGGGGCCACAGCAGAAGCGUUCACGUCGCAGCCCCAGUCAGAUUCUGGUGAAUCCGCGGAUUCUGCUGUAUAUCUC [U41A U60C A64G] yielded a self-cleavage of 0.32.
In the case of UAACAGGGGGCCACAGCAGAAGCGUUCACGUCGCAGCCCCAGUCAGAUUCUGGUGAAUCCGCGAGUUCUGCUGUAUACCUC [U41A U60C A65G U78C], the self-cleavage is reported as 0.1.
UAACAGGGGGCCACAGCAGAAGCGUUCACGUCGCAGCCCCAGUCAGAUUCUGGUGAAUCCGUGAAUUCUGCUGUAUAUCUC [U41A U60C C62U] showed a self-cleavage of 0.14.
With UAACAGGGGGCCACAGCAGAAGCGUUCACGUCGCAGCCCCAGUCAGAUUCUGGUGAAUCCGCGAACUCUGCUGUAUAUCUC [U41A U60C U66C] the self-cleavage was 0.44.
UAACAGGGGGCCACAGCAGAAGCGUUCACGUCGCAGCCCCAGUCAGAUUCUGGUGAAUCCGCGAAUUCUGCCGUAUAUCUC [U41A U60C U72C] showed a self-cleavage of 0.18.
Work on UAACAGGGGGCCACAGCAGAAGCGUUCACGUCGCAGCCCCAGUCAGAUUCUGGUGAAUCGGCGUAUUCUGCUGUAUAUCUC [U41A U60G A64U] yielded a self-cleavage of 0.39.
UAACAGGGGGCCACAGCAGAAGCGUUCACGUCGCAGCCCCAGUCAGAUUCUGGUGAAUCGGCGAAUUCUGCCGUAUAUCAC [U41A U60G U72C U80A] gave a self-cleavage of 0.35.
Work on UAACAGGGGGCCACAGCAGAAGCGUUCACGUCGCAGCCCCAGUCAGAUUCUGGUGAAUCUGCGAAAUCUACUGUAUAUCUC [U41A U66A G70A] yielded a self-cleavage of 0.14.
UAACAGGGGGCCACAGCAGAAGCGUUCACGUCGCAGCCCCAGUCAGAUUCUGGUGAAUCUGCGAACUCGGCUGUAUAUCUC [U41A U66C U69G] showed a self-cleavage of 0.08.
Variant UAACAGGGGGCCACAGCAGAAGCGUUCACGUCGCAGCCCCAGUCAGAUUCUGGUGAAUCUGCGAACUCGGCUGUAUACCUC [U41A U66C U69G U78C] has a self-cleavage of 0.13.
For UAACAGGGGGCCACAGCAGAAGCGUUCACGUCGCAGCCCCAGUCAGAUUCUGGUGAAUCUGCGAAUACUGCUGCAUAUCUC [U41A U67A U74C], the self-cleavage was 0.28.
UAACAGGGGGCCACAGCAGAAGCGUUCACGUCGCAGCCCCAGUCAGAUUCUGGUGAAUCUGCGAAUGCUGCUGUAUUUCUC [U41A U67G A77U] showed a self-cleavage of 0.17.
In the case of UAACAGGGGGCCACAGCAGAAGCGUUCACGUCGCAGCCCCAGUCAGAUUCUGGUGAAUCUGCGAAUGCUGCAGUAUAUCUC [U41A U67G U72A], the self-cleavage is reported as 0.08.
Variant UAACAGGGGGCCACAGCAGAAGCGUUCACGUCGCAGCCCCAGUCAGAUUCUGGUGAAUCUGCGAAUUCAGCUGUAUUUCUC [U41A U69A A77U] has a self-cleavage of 0.16.
Variant UAACAGGGGGCCACAGCAGAAGCGUUCACGUCGCAGCCCCAGUCAGAUUCUGGUGAAUCUGCGAAUUCAGCCGUAUAUCUC [U41A U69A U72C] has a self-cleavage of 0.49.
UAACAGGGGGCCACAGCAGAAGCGUUCACGUCGCAGCCCCAGUCAGAUUCUGGUGAAUCUGCGAAUUCAGCUGUAAAUCUC [U41A U69A U76A] showed a self-cleavage of 0.19.
In the case of UAACAGGGGGCCACAGCAGAAGCGUUCACGUCGCAGCCCCAGUCAGAUUCUGGUGAAUCUGCGAAUUCCGCUAUAUAUCUC [U41A U69C G73A], the self-cleavage is reported as 0.26.

Reference: the RNAGym collection of RNA variant scans (doi:10.1093/nar/gkz1192)
